Laboratory results reported in ChEMBL document CHEMBL4888484, “Replenishing the malaria drug discovery pipeline: Screening and hit evaluation of the MMV Hit Generation Library 1 (HGL1) against asexual blood stage Plasmodium falciparum ,using a nano luciferase reporter read-out” (2022).
The whole screen tested about 150,000 compounds, of which about 540 (0.36%) showed an effect of 50% or more. This is one part of the list.

Test system: Plasmodium falciparum
Assay: Primary screen in NF54 nanoGlo assay, in single point, at 2uM, 72h; a lower Z score goes with more inhibition
Assay type: functional, Erythrocyte
Conditions: timepoint 72 hour

SMILES | % Inhibition [%] | Z score
Cn1ncc2[nH]c(C(C)(C)CN3CCOCC3)nc21 | -1 | 0.07
CS(=O)(=O)[C@H]1CCN(C(=O)c2ccc(F)c3occc23)C1 | -3 | 0.46
CC(C)N1CCC(N2CCN(Cc3cc4ccccc4[nH]3)C[C@@H]2CCO)CC1 | 1 | -0.13
CO[C@@H](C)CNC(=O)Cc1c2c(n(CCc3ccccc3)c1C)CCCC2=O | -7 | 0.89
C[C@H](NCC(C)(C)c1cccc(F)c1)C1(S(C)(=O)=O)CC1 | 1 | -0.2
CC(=O)Nc1snnc1C(=O)NC1CCCCC1 | 27 | -3.11
C[C@H](NC(=O)c1ncccc1O)C1=CCCCC1 | -12 | 1.14
CCOc1ccc2nc(-n3nc(C)c4c3NC(=O)C[C@@H]4c3ccc(OC)c(OC)c3)sc2c1 | -9 | 1.4
CC(=O)Nc1cccc(OS(=O)(=O)N(C)C)c1 | -3 | 0.53
O=C1CCCCN1CCCC(=O)N1CCC(F)CC1 | 2 | -0.35
CN=C(N)Nc1ccc(OC(F)(F)F)cc1 | -5 | 0.65
O=S(=O)(c1ccc(F)c(Cl)c1)N1CC(Nc2cccnn2)C1 | -13 | 1.53
COCCC1(NC(=O)NC2CCCCC2)CCN(S(C)(=O)=O)CC1 | 3 | -0.41
O=C(c1ccc(Cl)s1)N1CC(Cn2cncn2)C1 | -24 | 3.09
O[C@@]1(CNCCC(c2ccccc2)c2ccccc2)CNCCOC1 | 12 | -1.7
COc1ccc(-n2nc(C(=O)N3CCN(C)CC3)c(=O)n(Cc3cccc(C(F)(F)F)c3)c2=O)cc1OC | -2 | 0.34
CC1(NCc2cc(Cl)cs2)COC1 | -1 | 0.16
Cc1nc(CS(=O)(=O)[C@@H](C)C(=O)Nc2ccccc2)no1 | -10 | 1.92
O=C(CCn1nc2ccccn2c1=O)Nc1c(O)cccc1F | -10 | 1.53
c1ccc(-c2nnc3n2C[C@@H](NCc2cccnc2)CC3)cc1 | -16 | 1.44
CO[C@H]1CCCN(C2CCN(c3ccccc3Cl)CC2)C1 | -2 | 0.45
COc1ccccc1N1CCN(C(=O)[C@@H]2CCN2S(=O)(=O)c2ccccc2)CC1 | 4 | -0.58

SMILES | % Inhibition [%] | Z score
CCN1C[C@@H](C(=O)N2CCN(c3nc(C)cc(C)n3)CC2)CCC1=O | -6 | 0.65
COCCN1C[C@@H](CNC(=O)CC(=O)Nc2cccc(Cl)c2C)CC1=O | 0 | -0.04
COc1ccc(CNC(=O)[C@H]2CCCN(c3cnn(C)c(=O)c3)C2)cc1OC | 27 | -3.02
Cc1ccc(NC(=O)N2CCCOCCNC(=O)[C@@H]3CCCC[C@@H]32)cc1C | 6 | -0.7
CN1CCC(O)(C(=O)NCCc2c(Cl)cccc2Cl)CC1 | -19 | 1.87
O=C(CCc1ccncc1)N1CCC(OC[C@H]2CCCO2)CC1 | -13 | 1.92
CC(C)(C)OC(=O)N[C@H]1CCc2nc(NC(=O)c3coc(CC4CC4)n3)sc2C1 | -6 | 0.92
COc1cc(OC)cc(C(=O)N2CCc3nc(-c4cccc(F)c4)[nH]c(=O)c3C2)c1 | -15 | 1.46
Cc1ccc(CCNC(=O)c2n[nH]c3c2CCC3)s1 | -13 | 2.64
CC(C)NC(=O)c1cc(N[C@H](C(N)=O)C(C)C)ccn1 | -7 | 0.91
NC(=O)Cn1cccc1-c1nc(-c2ccc3c(c2)OCO3)no1 | -10 | 1.24
O=C(Nc1cncc(F)c1)c1cccc(S(=O)(=O)NC[C@H]2CCOC2)c1 | -5 | 0.5
CCCN(Cc1nccn1C)C(=O)NCc1cncn1CC | -8 | 1.12
COC[C@H]1CN(C(C)=O)CC12CCN(Cc1ccc3[nH]ccc3c1)CC2 | 0 | 0.01
CC(C)C(NC(=O)c1cnc(N(C)C)o1)C(C)C | -15 | 1.95
CCCc1nc(CS(=O)(=O)Cc2ccc(Cl)s2)no1 | 2 | -0.21
O=C(c1ccco1)N1CCN(CCS(=O)(=O)c2ccc(Cl)cc2)CC1 | -1 | 0.07
C[C@@H]1CN(Cc2ccccc2C(=O)O)C[C@]1(C)O | -1 | 0.25
Cc1oc2ccccc2c1CCNC(=O)c1cnn(C2CCC2)c1 | -1 | 0.12
COCCc1nc2c(c(N3CCN(c4ccccc4F)CC3)n1)CCOCC2 | -2 | 0.19
CC(C)(C)OC(=O)NCc1ccccn1 | -12 | 1.61
CCc1ncc(C(=O)NCc2noc(C(N)=O)n2)cn1 | -9 | 1.72

SMILES | % Inhibition [%] | Z score
Cc1ccc(C(=O)N(C)[C@@H](c2ccccc2)c2ccccn2)c(=O)[nH]1 | -10 | 1.5
Cc1cc(CS(=O)(=O)N2CC(C3CC3)C2C2CC2)on1 (configuration not stated) | 3 | -0.52
Cc1ncccc1CCNC(=O)[C@H]1OCC[C@H]1Cn1cccn1 | -5 | 0.75
CC(C)CC(=O)N1CCC2(CC1)N[C@@H](Cc1ccccc1)C(=O)N2Cc1ccco1 | -3 | 0.4
Cc1csc(NC(=O)c2cc(-c3cccc(Cl)c3)[nH]n2)n1 | 4 | -0.58
CCC[C@@H](CNc1nccc(NCC)n1)N(C)C | -15 | 1.35
O=C(Nc1ccccc1)C1C2C(=O)N(Cc3ccncc3)C[C@]23C=C[C@H]1O3 (some centres not stated) | -3 | 0.47
COCCOc1ccc(N)cc1Br | -12 | 1.58
CC(C)(C)n1cc(C(=O)Nc2nnc(-c3ccsc3)s2)cn1 | -2 | 0.35
Cc1ncccc1C(=O)N1CC[C@H](CCOc2ccccc2F)C1 | -15 | 2.82
OCC#Cc1ccc(CNc2ccc3cn[nH]c3c2)s1 | -10 | 1.85
N#Cc1cnn(CC(=O)N(C2CCCCC2)[C@H]2CCS(=O)(=O)C2)c1 | -6 | 1.03
CN1CCc2c(c3ccccc3n2/C=C\c2cccnc2)C1 | -7 | 1.28
C[C@H]1C[C@@H](O)CCN1C(=O)c1ccoc1 | -14 | 2.02
CC1CC(c2ccsc2)CN1S(=O)(=O)N(C)C (configuration not stated) | 2 | -0.27
c1cncc(-c2n[nH]cc2CNCc2ccc(Cn3cccn3)cc2)c1 | -3 | 0.37
CON(C)C[C@H](O)Cn1cc(Nc2ncnc3cc(F)ccc23)cn1 | 33 | -0.52
Cc1ccc(C)c(S(=O)(=O)NCCC(=O)N[C@@]2(C)CCS(=O)(=O)C2)c1 | -3 | 0.44
O=C(N[C@H]1CCOc2c1ccc(Cl)c2Cl)C1CCOCC1 | -2 | 0.38
CN(C)Cc1nnc(C2CCN(C(=O)CN(C)c3ccccc3)CC2)n1C | 3 | -0.44
Cc1[nH]c(=O)c(C#N)c(C)c1CCC(=O)N[C@@H]1C[C@@H](C)Oc2ccccc21 | -3 | 0.52
Cc1nc(NC(=O)c2cccc3ccccc23)ccc1Cl | 12 | -1.34

SMILES | % Inhibition [%] | Z score
CCc1sc(C(=O)NCC(C)(C)C(N)=O)cc1C | -8 | 1.11
CCCCN(CC)CCNC(=O)C1CCN(C2=NS(=O)(=O)C(c3ccc(OC)cc3)=C2C)CC1 | 57 | -3.61
COc1cccc(CNc2nc(C)c(-c3ccn(C[C@H]4CCCCO4)n3)s2)c1 | -12 | 1.83
O=C(c1ccccc1)N(CC1CC1)C1CC1 | -12 | 1.27
O=C(CCCN1CCCCC1=O)NC(c1ccccc1)c1ccccc1 | -9 | 1
O=S(=O)(Nc1ncccn1)c1csc2ccc(Cl)cc12 | 1 | -0.14
CC(C)n1ncc2c1CC(NC(=O)C(C)S(C)(=O)=O)CC2 (configuration not stated) | 26 | -3.62
CCCN1C(=O)c2c(C(=O)NCCN3CCOCC3)ncn2C[C@@]1(C)C(=O)NCc1ccc(C)cc1 | -15 | 2.84
CCOc1ncccc1NC(=O)N(C)C1(CCO)CCOCC1 | 2 | -0.29
COc1c2c(c(Br)c3c1[C@H](CC(=O)NCc1ccccc1)N(C)CC3)OCO2 | -5 | 0.96
O=C1[C@@H](NC(=O)C2(O)CCCC2)CCCN1c1ccc(Cl)cc1Cl | 16 | -2.63
C=CCN[C@@H](C)c1cnc2ccnn2c1C | -14 | 1.42
CC1CCCCC1N(C)C(=O)c1cc2ccccc2c(=O)[nH]1 (configuration not stated) | 37 | -4.83
CC(C(=O)Nc1ccccc1-c1ccccc1)N1CCN(C2CCS(=O)(=O)C2)CC1 (configuration not stated) | -17 | 1.95
CCOCCN(C)Cc1c(C)nnn1CC | 0 | 0.03
CC1(C)c2[nH]c3ccccc3c2C[C@H]2C(=O)N(Cc3ccc(Cl)cc3)CC(=O)N21 | -4 | 0.54
O=S(=O)(NC[C@]1(OCCO)CCOC1)c1ccc(Cl)s1 | -16 | 2.41
Cc1cc(=O)c(C(=O)N2CCCCC2)c(CC2CCCC2)n1Cc1cccnc1 | 8 | -1.07
CCN(CC)c1ccc(C(=O)NCc2ccc3c(c2)CCN3C(C)=O)cc1 | 0 | -0.04
Cc1ccc(-c2nocc2CCC(=O)NC[C@H]2CCCO2)cc1 | -17 | 2.22
